“And” between values parts separate entries of the source, which are not always exact repeats. Identical values can stand only once. Inconclusive means that the source gave no clear call. Such entries were picked first, then a sample of the others. Potencies of inconclusive entries are doubtful fits and often do not repeat. The source made the active and inactive calls. Calls come from the whole dose curve; as a rule, active = well fitted curve in the direction sought with a large enough effect; inconclusive = small, poorly fitted or top-dose-only effect, or another doubt; inactive = no such curve, though single readings can be large; an effect the other way counts as inactive or inconclusive.
Experiments:
[1] = qHTS of pediatric cancer cell lines to identify multiple opportunities for drug repurposing: Primary screen for OHS-50 cells (AID 1347103); note: nearly all actives have a fitted effect of over 40% in size;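 for activity change, negative = cytotoxic: plate controls were DMSO neutral control for no effect and bortezomib positive control for full effect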
How it was run: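 Cells (500-1,000/well) rested 5 h, then received compounds for 48 h; metabolically active cells were measured by CellTiter-Glo luminescence. Final concentrations spanned up to 46 µM (MIPE, 11-point) or 0.59 nM-46 µM (NPC, 8-point) in primary screens, 11-point in follow-ups.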

[2] = qHTS of pediatric cancer cell lines to identify multiple opportunities for drug repurposing: Primary screen for MG 63 (6-TG R) cells (AID 1347105); details: MG 63 (6-TG R) viability, CellTiter-Glo, 48 h; activity change, negative = cytotoxic: at 46 µM (top of the series) unless noted; note: nearly all actives have a fitted effect of over 50% in size; for activity change, negative = cytotoxic: % is set by controls: 0 for no effect and ±100 for the full control effect
How it was run: (§1)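 Phenotypic viability qHTS, 48 h compound exposure, CellTiter-Glo luminescence read-out; multi-concentration dosing so that potency and efficacy derive directly from the primary screen's curves.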

[3] = qHTS of pediatric cancer cell lines to identify multiple opportunities for drug repurposing: Primary screen for control Hh wild type fibroblast cells (AID 1347106); note: nearly all actives have a fitted effect of over 55% in size;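 for activity change, negative = cytotoxic: % is set by controls: 0 for no effect and ±100 for the full control effect; a drop in luminescence marks cytotoxicity and a rise apparent proliferation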
How it was run: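 Cells (500-1,000/well) in growth media were settled 5 h at 37 degrees C, then given compounds for 48 h. Viability was read as CellTiter-Glo luminescence. Primary runs used MIPE at 11 points (0.78 nM-46 µM) and NPC at 8 points (0.59 nM-46 µM); follow-ups used 11 points.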

[4] = qHTS of pediatric cancer cell lines to identify multiple opportunities for drug repurposing: Primary screen for Rh41 cells (AID 1347108); note: nearly all actives have a fitted effect of over 70% in size
How it was run: as §1

[5] = qHTS of pediatric cancer cell lines to identify multiple opportunities for drug repurposing: Confirmatory screen for A673 cells (AID 1347110); note: nearly all actives have a fitted effect of over 65% in size
How it was run: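 Cells plated at 500-1,000/well were treated five hours later with multi-point dilutions up to 46 µM final. After two days, CellTiter-Glo was added and luminescence read.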

[6] = qHTS of pediatric cancer cell lines to identify multiple opportunities for drug repurposing: Confirmatory screen for SK-N-MC cells (AID 1347111);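 note: cells exposed to compound for 48 h before the readout; nearly all actives have a fitted effect of over 70% in size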
How it was run: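 SK-N-MC cells at 500-1,000 cells/well in growth media were pre-incubated 5 h, then exposed to compounds at 11-point dilutions for 48 h at 37 degrees C, 5% CO2. Viability was read as CellTiter-Glo luminescence.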

[7] = qHTS of pediatric cancer cell lines to identify multiple opportunities for drug repurposing: Primary screen for Rh30 cells (AID 1347107); note: nearly all actives have a fitted effect of over 75% in size
How it was run: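 Viability after 48 h compound treatment at 37C, 500-1,000 cells/well, read as ATP luminescence with CellTiter-Glo. Primary screens used 11-point (MIPE, 0.78 nM-46 µM) or 8-point (NPC, 0.59 nM-46 µM) final concentrations; follow-up screens used 11-point dilutions.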

[8] = qHTS of pediatric cancer cell lines to identify multiple opportunities for drug repurposing: Primary screen for RD cells (AID 1347104); note: nearly all actives have a fitted effect of over 55% in size;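 for activity change, negative = cytotoxic: plate controls were DMSO for no effect and bortezomib for full effect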
How it was run: as §1
Potency is the fitted concentration of half-maximal effect; tags give direction and shape of the fitted curve.

With `Cc1cnc(Nc2ccc(OCCN3CCCC3)cc2)nc1Nc1cccc(S(=O)(=O)NC(C)(C)C)c1` the Potency [1] was inconclusive: 7.69 µM [cytotoxic, partial curve, poor fit] and the Potency [2] was inconclusive: 37.2 µM [cytotoxic, single point].

In the case of `CN1CC(=O)N2C(Cc3c([nH]c4ccccc34)[C@H]2c2ccc3c(c2)OCO3)C1=O` (stereo partly drawn), the Potency [1] is reported as inconclusive: 19.3 µM [cytotoxic, partial curve], the Potency [2] is reported as inconclusive: 2.96 µM [cytotoxic, partial curve, poor fit] and the Potency [3] is reported as “inactive”. For the same molecule, the Potency [4] was inconclusive: 18.7 µM [cytotoxic, partial curve, poor fit].

In the case of `Oc1ccc(O)cc1`, the Potency [1] is reported as inconclusive: 43.7 µM [cytotoxic, partial curve, poor fit], the Potency [2] is reported as “inactive” and the Potency [3] is reported as “inactive”. The Potency [4] was inconclusive: 13.3 µM [cytotoxic, partial curve], the Potency [5] was inconclusive: 26.1 µM [cytotoxic, partial curve] and the Potency [6] was inconclusive: 26.1 µM [cytotoxic, single point].

For `O=C(OCc1ccccc1)c1ccc(O)cc1`, the Potency [1] was inconclusive: 21.9 µM [cytotoxic, partial curve] and the Potency [2] was “inactive”.

With `CC(=O)Oc1ccccc1C(=O)Nc1ncc([N+](=O)[O-])s1` the Potency [1] was inconclusive: 30.9 µM [cytotoxic, single point], the Potency [2] was inconclusive: 27 µM [cytotoxic, partial curve, poor fit] and the Potency [7] was inconclusive: 27 µM [cytotoxic, partial curve] and inconclusive: 15 µM [cytotoxic, partial curve]. For the same molecule, the Potency [4] was inconclusive: 34 µM [cytotoxic, partial curve] and inconclusive: 16.8 µM [cytotoxic, partial curve].

In the case of `Nc1ccc([N+](=O)[O-])cc1O`, the Potency [1] is reported as inconclusive: 35.5 µM [cytotoxic, partial curve], the Potency [2] is reported as inconclusive: 24.3 µM [cytotoxic, partial curve] and the Potency [3] is reported as inconclusive: 12.2 µM [cytotoxic, partial curve, poor fit]. The Potency [6] was inconclusive: 2.14 µM [cytotoxic, full curve, poor fit].

With `Cc1cccc(Nc2nc(-c3ccncc3)cs2)c1` the Potency [1] was active: 21.7 µM, the Potency [8] was inconclusive: 37.2 µM [cytotoxic, partial curve, poor fit] and the Potency [4] was inconclusive: 18.7 µM [cytotoxic, single point].

With `C#C[C@]1(O)CC[C@H]2[C@@H]3CCc4cc(O)ccc4[C@H]3CC[C@@]21C` the Potency [1] was active: 24.6 µM, the Potency [8] was inconclusive: 15 µM [cytotoxic, partial curve] and the Potency [4] was inconclusive: 23.7 µM [cytotoxic, single point].

With `CC1=C[C@@H]2[C@@H]([C@@H](O)C[C@@]3(C)[C@H]2C[C@@H](C)[C@]3(O)C(=O)CO)[C@@]2(C)Cc3cnn(-c4ccccc4)c3C=C12` the Potency [1] was inconclusive: 21.7 µM [cytotoxic, partial curve], the Potency [2] was inconclusive: 23.5 µM [cytotoxic, single point] and the Potency [7] was inconclusive: 13.2 µM [cytotoxic, partial curve, poor fit]. The Potency [4] was inconclusive: 18.7 µM [cytotoxic, partial curve].

For `CN(C)c1ccc2nc3ccc(=[N+](C)C)cc-3sc2c1`, the Potency [1] was active: 1.37 µM and active: 872 nM, the Potency [2] was active: 3.72 µM and active: 2.11 µM and the Potency [3] was inconclusive: 26.4 µM [cytotoxic, single point] and active: 11.9 µM. The Potency [7] was inconclusive: 8.33 µM [cytotoxic, full curve] and inconclusive: 5.96 µM [cytotoxic, full curve] and the Potency [5] was active: 8.27 µM.

In the case of `COc1ncc(-c2ccc3nccc(-c4ccnnc4)c3c2)cc1NS(=O)(=O)c1ccc(F)cc1F`, the Potency [1] is reported as active: 0.001 µM, the activity change, negative = cytotoxic [2] is reported as inconclusive: -96.7% and the Potency [7] is reported as active: 1.48 µM. The Potency [4] was active: 0.0118 µM.

With `CC1(C)NC(=O)N(c2ccc([N+](=O)[O-])c(C(F)(F)F)c2)C1=O` the Potency [1] was “inactive”, the Potency [8] was “inactive” and the Potency [4] was inconclusive: 10.5 µM [cytotoxic, partial curve].

For `CCCCC/C=C\C/C=C\CCCCCCCC(=O)NC(C)c1ccccc1` (stereo not drawn), the Potency [1] was inconclusive: 21.9 µM [cytotoxic, partial curve], the Potency [2] was “inactive” and the Potency [3] was “inactive”. The Potency [4] was inconclusive: 33.5 µM [cytotoxic, partial curve, poor fit].
